Results from patent EP1828247B1 (Crucell Holland B.V., dated 2011).

Molecular target: T1, recombinantly expressed purified soluble WNV E protein (strain 382-99), truncated form with Myc and His tags (West Nile virus strain 382-99, UniProt Q9Q6P4 291-696)
T1 construct: also called recombinant WNV-E protein; truncated E protein; not shown: Myc tag and His tag from pAdapt.myc.his
T1 sequence: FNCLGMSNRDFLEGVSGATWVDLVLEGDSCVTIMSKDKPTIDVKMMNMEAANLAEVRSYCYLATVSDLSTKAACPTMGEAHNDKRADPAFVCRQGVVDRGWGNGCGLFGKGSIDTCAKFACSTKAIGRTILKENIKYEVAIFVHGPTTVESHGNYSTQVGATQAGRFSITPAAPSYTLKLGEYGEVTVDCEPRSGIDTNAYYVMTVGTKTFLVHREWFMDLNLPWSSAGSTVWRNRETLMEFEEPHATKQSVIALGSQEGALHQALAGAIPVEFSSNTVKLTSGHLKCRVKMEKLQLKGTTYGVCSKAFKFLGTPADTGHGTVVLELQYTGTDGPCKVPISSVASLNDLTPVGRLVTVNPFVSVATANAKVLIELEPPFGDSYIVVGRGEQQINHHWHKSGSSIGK
Assay: phage antibody ELISA on coated recombinant soluble WNV E protein

B1: SC04-274 (scFv)
scFv: QVQLVQSGAEVKKPGESLKISCKGSGYSFTSYWIGWVRQMPGKGLEWMGIIYPGDSDTRYSPSFQGQVTISADRSISTAYLQWSSLKASDTAMYYCARLRGPYYDFWNGYRETHDAFNVWGQGTTVTVSSGTGGSGGTGSGTGGS[gap - about 100 residues]FGGGTKVEIKR
B1 was tested, and the “OD 492nm” value was 0.496 OD 492nm.
